# In all, about 4,100 sequences were measured (“relative CpG methylation activity (normalised to average over all NNNCGNNN flanks)”: median about 0.94, highest 2% from about 1.9 on). The list shows a part of the results.
# Target: DNMT3B catalytic domain (mouse) (UniProt O88509)
# Experiment: relative CpG methylation activity (normalised to average over all NNNCGNNN flanks) (relative (1 = mean)); higher = more methylation of the central CpG
# Details: system: in vitro, murine catalytic domain; CpG state: hemimethylated substrate pool; residues: 558-859
# Method: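 Deep enzymology: a pool of dsDNA substrates with a central CpG flanked by 10 random nucleotides on each side was methylated by the murine DNMT3A or DNMT3B catalytic domain (0.8 mM SAM, 37 °C, 60 min). Methylation was then read out by hairpin ligation, bisulfite conversion and NGS. Values are the average methylation of each NNNCGNNN context (±3 flanks; the outer flanks are random and averaged over), normalised to the overall mean, so 1 = average activity.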
# Sequence of UniProt O88509 (O88509 558-859): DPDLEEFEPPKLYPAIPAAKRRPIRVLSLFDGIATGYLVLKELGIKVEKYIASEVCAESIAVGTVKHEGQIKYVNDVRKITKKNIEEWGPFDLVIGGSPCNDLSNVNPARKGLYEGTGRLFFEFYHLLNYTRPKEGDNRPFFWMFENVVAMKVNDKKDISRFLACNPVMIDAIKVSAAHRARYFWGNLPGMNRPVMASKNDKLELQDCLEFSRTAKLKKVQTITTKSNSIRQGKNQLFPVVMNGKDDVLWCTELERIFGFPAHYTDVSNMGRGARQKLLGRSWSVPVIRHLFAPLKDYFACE
row,Sequence,relative CpG methylation activity
1,TACCGGTT,1.02
2,CAGCGAGC,1.41
3,GAACGCTC,1.34
4,CTACGTTC,1.23
5,TTCCGCTC,1.27
6,CCCCGGAC,1.22
7,CAACGGAG,1.04
8,ATTCGCAT,0.486
9,GTGCGCAA,0.688
10,ATTCGATT,1.69
11,CGTCGTGA,0.256
12,AATCGATC,1.49
13,GTACGCGC,1.62
14,TGCCGACC,0.967
15,ACACGTAA,0.802
16,TTACGATT,2.01
17,AAACGACG,1.42
18,GGACGCCG,1.1
19,TGCCGATC,1.3
20,CACCGTTG,0.195
21,GCGCGTCA,0.557
22,TATCGTGT,0.189
23,TCCCGATT,1.46
24,ACTCGATT,1.52
25,ATGCGACC,1.14

row,Sequence,relative CpG methylation activity
1,ACGCGACA,0.917
2,ACGCGACT,1.12
3,GCGCGTCG,0.645
4,GAGCGTTC,0.748
5,CTCCGGGG,1.56
6,CTGCGAAT,0.954
7,GCCCGCCG,0.794
8,GTTCGCCG,0.978
9,GCGCGGCC,1.19
10,AACCGGAA,0.489
11,CCGCGTCG,0.711
12,GGGCGTCA,0.385
13,CTTCGTCT,0.992
14,AGTCGAAC,1.34
15,TGGCGTCT,0.488
16,GCCCGTTC,0.786
17,TCTCGATG,1.13
18,CGCCGGGG,0.825
19,ATTCGTCC,0.914
20,GCCCGACG,1.16
21,GTCCGTAA,0.521
22,ATTCGTGC,0.671
23,CATCGAAG,1.16
24,GAACGATC,1.71
25,CGTCGAGG,1.27

row,Sequence,relative CpG methylation activity
1,TCTCGTAT,0.505
2,TGCCGTGC,0.41
3,GAACGAAT,1.45
4,TCGCGTGT,0.272
5,CGTCGTGC,0.639
6,TCCCGTGA,0.497
7,TCGCGATA,1.34
8,TGACGATA,1.32
9,GGCCGTAA,0.188
10,CGTCGGTC,1.47
11,TTTCGAAG,1.54
12,AACCGAAA,0.932
13,TACCGGTA,1.11
14,CGACGACT,0.873
15,AGACGATA,1.67
16,TGGCGTGC,0.174
17,ATACGCAT,1.26
18,TCACGGGG,1.37
19,GACCGGAG,0.548
20,AGACGTGT,0.652
21,ATACGGCA,2.11
22,ACCCGATT,1.41
23,CCGCGCTA,0.71
24,TTTCGCAC,0.941
25,CAACGTGG,0.677

row,Sequence,relative CpG methylation activity
1,GTTCGAGG,1.32
2,GAGCGGAC,0.583
3,TACCGTTA,0.286
4,TACCGACG,1.21
5,ACACGCTA,1.07
6,CTCCGTAC,1.58
7,GCGCGAAC,1.13
8,CTACGCCC,1.87
9,TAACGACA,1.33
10,CTCCGCAT,0.91
11,GGCCGGCG,0.897
12,AATCGAAC,1.47
13,CTTCGAAC,1.98
14,CCGCGACT,0.98
15,TGACGAAT,1.17
16,GGGCGGCT,0.777
17,TACCGGAC,0.739
18,AGACGCGG,1.03
19,GCGCGACA,0.777
20,GATCGTCC,0.775
21,GTGCGTAT,0.76
22,TTTCGTTT,0.781
23,CCGCGTGG,0.387
24,TTTCGGCC,1.65
25,TCCCGTTT,0.489

row,Sequence,relative CpG methylation activity
1,CATCGGTT,1.34
2,CTACGCCA,1.78
3,CAACGGGC,1.82
4,AAACGGAG,0.828
5,TTACGTAA,1.15
6,AGCCGTAC,0.381
7,GCACGCAT,0.786
8,AGCCGACT,0.736
9,CTGCGGTG,1.14
10,AGCCGGTT,0.481
11,TATCGATG,1.71
12,CGTCGAAT,1.35
13,TCACGTCA,1.11
14,GCGCGCAT,0.495
15,CCGCGGTC,1.43
16,GGGCGTGA,0.157
17,GGGCGTAT,0.545
18,ATCCGTGT,0.477
19,ACTCGAAG,0.938
20,TTACGTCA,1.59
21,ACCCGCGT,0.44
22,TTGCGTTC,0.96
23,TATCGTAT,0.351
24,AAGCGGTT,0.724
25,TAGCGCGA,0.272

row,Sequence,relative CpG methylation activity
1,CATCGAGT,1.5
2,TTTCGTAC,1.4
3,CCCCGAGT,1.79
4,AGTCGTGG,0.341
5,TGGCGCCC,0.691
6,TGTCGCAG,0.408
7,GTACGGTG,1.48
8,AGCCGATA,1.09
9,ATTCGTGA,0.279
10,GCACGAAA,1.55
11,TTACGTCC,1.93
12,CAACGCAT,0.973
13,TTTCGTAG,0.862
14,TCCCGGTA,1.34
15,AAACGCTT,1.17
16,GTACGACT,1.46
17,ATCCGCCG,0.929
18,AAGCGTGT,0.216
19,TCTCGGAC,0.926
20,GGCCGTGC,0.358
21,TAGCGTGG,0.258
22,CCGCGCAG,0.423
23,GTCCGGAT,1.08
24,ATTCGCGC,0.947
25,TTTCGAAT,1.49

row,Sequence,relative CpG methylation activity
1,GACCGATC,1.45
2,GAACGCAG,0.706
3,GAACGGTC,1.59
4,GCCCGCAT,0.526
5,TCCCGGAG,0.833
6,GGTCGAAT,0.687
7,CATCGGGT,1.25
8,TATCGCCA,0.791
9,TATCGACA,1.35
10,CTACGCCG,1.71
11,TGCCGCCC,0.54
12,CCCCGGAT,1.03
13,TCGCGCAG,0.504
14,AGACGAAA,1.21
15,AAGCGAAT,0.703
16,CCTCGGGA,1.54
17,TCTCGCGA,0.666
18,GCGCGCTA,0.519
19,CACCGTCA,0.471
20,GGTCGAAC,1.11
21,GTACGTCT,1.25
22,GTACGGAT,1.48
23,ACACGATT,1.73
24,ATGCGAGC,1.55
25,TATCGACT,1.61

row,Sequence,relative CpG methylation activity
1,GCACGTAC,1.19
2,TCCCGTAG,0.445
3,GAACGGCA,1.84
4,ATTCGGCA,1.86
5,AAGCGTCA,0.495
6,GGCCGCCC,0.29
7,CCGCGAGA,1.34
8,GAGCGCAA,0.386
9,GTCCGGTT,1.47
10,TAGCGGAT,0.718
11,GAGCGGCT,1.13
12,TCGCGGAG,0.754
13,GTGCGGGT,1.3
14,TATCGTGA,0.224
15,ACCCGTGT,0.42
16,GCCCGGCG,1.55
17,ATGCGGTC,1.57
18,GTACGTAA,0.995
19,GTACGGGT,1.85
20,TGGCGCTT,0.368
21,TACCGCTC,0.833
22,TTGCGGGT,1.43
23,CCTCGCAT,0.611
24,TGCCGGAC,0.65
25,GCGCGATC,1.23

row,Sequence,relative CpG methylation activity
1,CAGCGCCT,0.884
2,GTGCGGCC,1.04
3,AGGCGTCC,0.475
4,AAGCGAAG,0.431
5,TACCGGAG,0.505
6,TGACGCCA,1.07
7,GGGCGGAT,0.147
8,GCTCGCCT,0.739
9,TACCGCCA,0.619
10,GGTCGGCC,1.57
11,ATGCGTAC,0.865
12,TTTCGGCA,1.69
13,CGCCGAAC,1.04
14,ATTCGACC,1.48
15,AAACGATT,1.73
16,CAGCGAGG,0.679
17,TATCGTCG,0.711
18,GATCGAAG,0.884
19,GAGCGCTA,0.566
20,ATGCGAGT,0.909
21,GACCGTCC,0.676
22,CCACGCGG,0.807
23,GATCGCTT,0.747
24,ACTCGTGC,0.576
25,AGTCGGCG,1.55

row,Sequence,relative CpG methylation activity
1,ACTCGCCT,0.821
2,GGACGCAC,0.71
3,CAGCGAAT,0.681
4,ACACGAAT,1.42
5,GGTCGCGA,0.143
6,GGTCGTGG,0.302
7,TCGCGCTT,0.749
8,TAGCGACA,0.768
9,ACACGATG,1.42
10,ACCCGAGG,1.57
11,GCCCGAGT,1.45
12,TTGCGGGG,1.09
13,GAGCGACC,0.806
14,AAACGGTA,1.52
15,TGGCGTCC,0.637
16,TCACGCGT,1.03
17,GGTCGGGG,0.992
18,GGACGCGA,0.585
19,GAGCGAGA,0.772
20,GAACGCAT,0.939
21,CGCCGATA,1.14
22,GATCGTAG,0.252
23,GAGCGACG,0.449
24,AGGCGACC,0.788
25,CAACGCAA,0.772

row,Sequence,relative CpG methylation activity
1,CGTCGTCC,0.711
2,AGGCGTAT,0.55
3,ATTCGGCG,1.77
4,AGGCGAGC,1.03
5,CACCGACG,1.08
6,TAGCGTGC,0.453
7,CTTCGCCC,1.36
8,CCCCGACT,1.33
9,CCACGGTG,1.26
10,GTACGGCA,1.9
11,CAACGGAA,1.23
12,TAGCGACT,0.872
13,GTCCGGCA,1.75
14,GTGCGACA,1.22
15,CGGCGCAG,0.389
16,TAGCGAGG,1.1
17,CCCCGCCC,1.18
18,TGGCGCAC,0.391
19,GATCGTCG,0.307
20,CAACGGGT,1.31
21,AGTCGGAC,0.688
22,GAGCGCTC,0.931
23,GTCCGATC,1.77
24,CATCGCTC,0.899
25,GATCGTTC,0.514

row,Sequence,relative CpG methylation activity
1,CGCCGTTG,0.16
2,TAACGGTA,1.43
3,AACCGTCA,0.375
4,GTCCGACT,1.32
5,TACCGTCG,0.394
6,GCCCGGGG,1.47
7,CGGCGCCT,0.501
8,CTCCGATA,1.72
9,TCTCGTGG,0.258
10,ACTCGAAC,1.52
11,GGCCGACT,0.91
12,AGTCGTCC,0.747
13,CACCGTTC,0.738
14,CCTCGCCT,1.09
15,TCTCGGGT,1.12
16,AATCGTTA,0.41
17,ATTCGAAA,1.39
18,GAACGGCT,1.81
19,CCGCGGTG,0.786
20,TGACGAGT,1.21
21,AATCGACG,1.13
22,GATCGAAT,1.25
23,TTACGAGG,1.8
24,CGACGACA,1.04
25,TAGCGTTG,0.475

row,Sequence,relative CpG methylation activity
1,TCCCGGGT,1.03
2,TCGCGCCG,0.635
3,CAACGACT,1.61
4,GGTCGGCT,1.34
5,ACTCGCTT,0.73
6,CTGCGGTC,1.14
7,TGACGCCC,1.15
8,TGCCGATG,0.821
9,TTACGGTA,2.02
10,CCACGGCT,1.89
11,GCGCGGAC,0.712
12,AGACGGAA,0.982
13,TCACGTTA,0.705
14,ATTCGGGC,1.72
15,GACCGACA,0.92
16,AATCGTAC,0.777
17,TGTCGGTG,1.19
18,GACCGAGC,1.54
19,GTCCGTCA,0.708
20,CAACGTAT,1.18
21,CAGCGTTC,0.595
22,TCACGAGT,1.49
23,GTGCGAGA,1.48
24,AGCCGCGT,0.163
25,ATGCGGTG,0.768

row,Sequence,relative CpG methylation activity
1,GTGCGTCA,0.799
2,TAACGTAA,0.822
3,ACACGCGA,0.897
4,GCTCGACG,1.17
5,AAACGGTT,1.59
6,CCACGGGG,1.73
7,TTACGTAG,1.19
8,ACTCGTGG,0.128
9,ATACGCTT,1.51
10,TAACGGAC,1.52
11,TTCCGCTA,1.23
12,AAACGAAT,1.46
13,GTGCGGTC,1.18
14,GGTCGCTC,0.726
15,AAACGTAA,0.775
16,ACACGAGG,1.64
17,AGTCGGGC,1.26
18,TGGCGGCT,0.825
19,CCCCGCAG,0.691

# — the supplement of paper PMC7335073
